Results as given in article PMC4336329 (PLoS ONE, 2015).
The campaign covered roughly 310,000 compounds. About 14,000 (4.5%) showed an effect of 50% or more. Effects have a minus sign here. This is one part of the list.

target: human ether-à-go-go-related gene (hERG) potassium channel (human, UniProt Q12809); test: primary screen, population patch clamp on CHO cells stably expressing hERG
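Further: peak tail current of the secondary pulse compared with the same well before compound.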

human ether-à-go-go-related gene (hERG) potassium channel, sequence (Q12809 whole entry, looked up): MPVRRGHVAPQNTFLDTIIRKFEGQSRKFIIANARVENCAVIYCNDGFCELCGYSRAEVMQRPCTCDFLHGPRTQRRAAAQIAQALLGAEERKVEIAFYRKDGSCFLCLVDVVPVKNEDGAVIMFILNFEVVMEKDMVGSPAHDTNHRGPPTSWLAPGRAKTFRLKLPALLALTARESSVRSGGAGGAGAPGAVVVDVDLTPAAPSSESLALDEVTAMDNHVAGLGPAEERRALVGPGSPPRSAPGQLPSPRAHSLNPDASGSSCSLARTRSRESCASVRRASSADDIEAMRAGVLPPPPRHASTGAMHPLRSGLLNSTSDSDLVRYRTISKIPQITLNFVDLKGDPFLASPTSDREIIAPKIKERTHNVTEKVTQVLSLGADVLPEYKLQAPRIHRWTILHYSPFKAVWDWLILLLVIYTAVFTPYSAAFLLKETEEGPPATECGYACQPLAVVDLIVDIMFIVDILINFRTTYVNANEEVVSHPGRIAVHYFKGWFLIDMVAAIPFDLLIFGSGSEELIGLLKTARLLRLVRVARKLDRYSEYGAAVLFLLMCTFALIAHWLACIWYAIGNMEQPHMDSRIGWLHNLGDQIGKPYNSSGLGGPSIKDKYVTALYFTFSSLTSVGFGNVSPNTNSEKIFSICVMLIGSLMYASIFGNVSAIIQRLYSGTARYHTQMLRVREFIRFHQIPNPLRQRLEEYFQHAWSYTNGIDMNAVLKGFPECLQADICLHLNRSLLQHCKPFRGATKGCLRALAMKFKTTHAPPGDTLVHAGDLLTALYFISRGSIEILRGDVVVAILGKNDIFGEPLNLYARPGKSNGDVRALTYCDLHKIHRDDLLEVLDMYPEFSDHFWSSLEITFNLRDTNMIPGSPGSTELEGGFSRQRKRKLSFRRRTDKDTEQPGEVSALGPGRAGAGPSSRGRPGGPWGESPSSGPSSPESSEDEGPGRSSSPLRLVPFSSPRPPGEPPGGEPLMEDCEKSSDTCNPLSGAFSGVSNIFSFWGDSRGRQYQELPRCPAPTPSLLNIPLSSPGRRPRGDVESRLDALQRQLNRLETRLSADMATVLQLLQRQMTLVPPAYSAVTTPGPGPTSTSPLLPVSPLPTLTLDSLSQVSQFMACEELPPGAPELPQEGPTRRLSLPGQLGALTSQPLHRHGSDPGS

Row | Structure (SMILES) | hERG current change (%, negative = inhibition) at 10uM [%]
1 | COc1cc(C)ccc1N(CCCN1C(=O)c2cccc3cccc(c23)C1=O)C(=O)c1cccs1 | -12.3
2 | O=C(c1cc(-c2cccnc2)nc2ccc(Br)cc12)N1CCN(c2ncccn2)CC1 | -19.6
3 | COc1ccc(-c2ccc(C(=O)C3CC3)cc2)cc1 | 14.7
4 | CCOC(=O)CC1CCCCN1C(=O)CCCn1nnnc1CN1CCOCC1 (centres unmarked) | 13.3
5 | CC(=O)Nc1ccc(NC(=O)COc2cccc3c2OC(C)(C)C3)cc1 | 9.26
6 | CCCCn1c(SCc2ccccn2)nc2c1c(=O)n(C)c(=O)n2C | -8.02
7 | Cc1sc(N2C(=O)C3C4C=CC(C4)C3C2=O)c(C#N)c1C (centres unmarked) | -5.96
8 | CN(C)C=C1C(=O)c2ccccc2C1=O | 17.3
9 | CCCN(CCC)S(=O)(=O)c1ccc(C(=O)Nc2nnc(-c3cc(OC)cc(OC)c3)o2)cc1 | 3.19
10 | O=C(NCC(=O)N1CCCC(C(F)(F)F)C1)c1ccc(Oc2ccccc2)cc1 (centres unmarked) | -29.7
11 | O=C(CCC(=O)N1CCOc2ccc(Cl)cc21)NCc1ccccc1 | -21.7
12 | COc1cc(/C=N/OCC(=O)NC2CCS(=O)(=O)C2)ccc1OC(F)F (centres unmarked) | -16.1
13 | N#Cc1c(SCC(=O)OCc2ccccc2)nsc1SCC(=O)OCc1ccccc1 | -6.08
14 | O=C(COc1ccc(Br)cc1CO)Nc1ccc(F)cc1 | -32.8
15 | O=C(CSc1nnc(Cc2cc(=O)[nH]c(=O)[nH]2)n1-c1ccc(F)cc1)N1CCCCC1 | 7.82
16 | COc1ccc(-c2nnc(SC3CCOC3=O)n2C2CCCCC2)cc1OC (centres unmarked) | -11.5
17 | O=C(Cc1ccc(Cl)cc1)Nc1ccc(S(=O)(=O)Nc2ncccn2)cc1 | 23.3
18 | O=c1[nH]c2cc3c(cc2cc1CN(CCCO)C(=S)NCc1ccco1)OCO3 | 12
19 | CCc1ccc(NS(=O)(=O)c2cccc3nsnc23)cc1 | 9.94
20 | Cc1nc(C)c(-c2ccc(SCc3cccc(F)c3)nn2)s1 | -50.6
21 | COc1cc2c(cc1NC(=O)COC(=O)CNS(=O)(=O)c1ccc(C)cc1)oc1ccccc12 | 1.63
22 | N#CC1=C(Nc2ccccc2)SC=C(c2ccc(Br)cc2)N=C1N1CCOCC1 | -64.7

Row | Structure (SMILES) | hERG current change (%, negative = inhibition) at 10uM [%]
23 | COc1ccc(N2CCN(S(=O)(=O)CCNC(=O)c3ccc(Br)o3)CC2)cc1 | 10.6
24 | CCCC(C)(C)NC(=O)CCCCC(=O)NC(C)(C)CCC | -9.49
25 | O=C(Cc1csc(-c2ccc(Cl)cc2)n1)Nc1cccc(S(=O)(=O)NC2=NCCC2)c1 | 1.53
26 | Cc1cccc(NC(=O)c2sccc2-n2cccc2)c1C | 0.147
27 | O=C(NCCCN1CCCC1=O)c1cc2ccccc2o1 | -11.2
28 | Cc1ccc(S(=O)(=O)NCCn2nc(C)nc2C)cc1 | 24.8
29 | O=C(CCC(=O)NC1CCCCC1)Nc1cccnc1 | 11.3
30 | O=C(c1cnc2ccccc2n1)N1CCN(c2ccc(C(F)(F)F)cn2)CC1 | -17.1
31 | Cc1[nH]c(=O)[nH]c(=O)c1/C=N/NC(=O)[C@@H](N)CC(C)C.Cl | -4.29
32 | CC(OC(=O)c1ccccn1)C(=O)Nc1ccc2c(c1)OCCO2 (centres unmarked) | 8.14
33 | Fc1cccc(CCN2C(=S)NC[C@@H]2Cc2ccccc2)c1 | -19.8
34 | C[C@]12CCC(=O)C=C1CC[C@@H]1C2CC[C@]2(C)C(=O)CCC12 (some centres unmarked) | -0.99
35 | NC(N)=NC(N)=Nc1cccc2ccccc12 | 11.6
36 | C=CCNC(=S)NS(=O)(=O)c1cccs1 | 11.6
37 | O=C(c1ccc(-c2ccccc2Cl)o1)N1CCN(c2ccccc2O)CC1 | 8.64
38 | Cl.O=C(CCS(=O)(=O)c1ccccc1)N(CCCN1CCOCC1)c1nc2c(F)cccc2s1 | -21
39 | COCC(=O)N1CCCN(c2nc3c(C)cccc3cc2C#N)CC1 | -22.2
40 | Cc1ccc(S(=O)(=O)Nc2ccccc2C(=O)N2CCN(C)CC2)cc1 | -3.2
41 | COC(=O)[C@H](CCSC)NC(=O)NCc1ccccn1 | -0.164
42 | O=C(Nc1cccc(Cl)c1)N1CCN(c2ncccn2)CC1 | -5.41
43 | CCCCCC1CCC(C(=O)NNC(=S)NCC)CC1 (centres unmarked) | -1.5
44 | Cn1c(SCC(=O)N2CCCC2)nnc1-c1ccc2c(c1)OCO2 | 10.9
